Experimental data from PubChem BioAssay AID1347073 (National Center for Advancing Translational Sciences (NCATS), 2019).
In all, about 45,000 compounds went through this assay and about 200 (0.44%) were called active. Roughly 7% stayed inconclusive and do not appear here. Calls come from the whole dose curve; as a rule, active = well fitted activation curve with a large enough effect; inconclusive = small, poorly fitted or top-dose-only effect; inactive = no such curve, though single readings can be large or run the other way. The list shows a part of the results.

experiment: qHTS of TDP-43 Inhibitors: NCGC Sytravon Library Screen; settings: yeast TDP-43 toxicity rescue, BacTiter-Glo growth, 24 h; series mostly up to 46.1 µM; growth rescue (activation): at the top concentration; note: 0% is about no effect; nearly all actives have a fitted effect of over 55% in size
In short: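 TDP-43-expressing yeast, pregrown in raffinose, seeded at OD600 0.02 in galactose medium with compound for 24 hr at 30 deg C. Growth read by BacTiter-Glo luminescence, so rescue of toxicity appears as activation.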

| SMILES | growth rescue (activation) |
| --- | --- |
| O=C(COC(=O)C1=NN(c2ccccc2)C(=O)CC1)NCc1ccccc1Cl | inactive: 19.1% |
| CCOC(=O)c1cnn2cc(-c3[nH]ncc3[N+](=O)[O-])cnc12 | inactive: 9.23% |
| Cc1ccc(S(=O)(=O)NNC(=O)C(=O)NNc2ccccn2)cc1 | inactive: 19.2% |
| COc1ccc(NC(=O)CN2CCN(CC(=O)Nc3ccc(F)cc3F)CC2)cc1 | inactive: -0.0599% |
| Cc1cc(NC(=O)c2cc(-c3ccc(Br)cc3)on2)no1 | inactive: -0.868% |
| c1ccc2c(c1)CCN(C1=Nc3cccc4cccc1c34)C2 | inactive: -11.8% |
| CCc1ccc(OC2(C)CCN(Cc3ccc(SC)cc3)C2)cc1 (stereo not drawn) | inactive: 18.8% |
| CC1(C)CC(=O)/C(=C(\O)CCCN2C(=O)c3ccccc3C2=O)C(=NCC(=O)O)C1 | inactive: 2.17% |
| Cc1cccc(Nc2nnc(SCc3cc(=O)n4cc(C)ccc4n3)s2)c1 | inactive: -0.537% |
| COc1ccc(OCC(O)Cn2c(N3CCCCC3)nc3c2c(=O)n(C)c(=O)n3C)cc1 (stereo not drawn) | inactive: 12% |
| CCOC(=O)C1CCCN(c2c(NCCc3ccc(C)cc3)c(=O)c2=O)C1 (stereo not drawn) | inactive: 15.4% |
| Cc1ccc(O)c(C(=O)c2cnc(/N=C(\N)N(C)C)nc2)c1 | inactive: 10.8% |
| COc1ccc(N(C(=O)c2cnccn2)C(C(=O)NC2CCCCC2)c2ccc(O)cc2)cc1 (stereo not drawn) | inactive: 2.59% |
| O=C(CSc1cccc2cccnc12)N/N=C/c1ccncc1 | inactive: -8.26% |
| CC(=O)Nc1cccc(-c2ccnc3c2CC(C)(C(=O)NC(C)C)O3)c1 (stereo not drawn) | inactive: 7.25% |
| CCC(C(=O)OCC(=O)Nc1cc(C)ccc1OC)c1ccccc1 (stereo not drawn) | inactive: 21.9% |
| O=C(NCCCO)c1cc2c([nH]c3ccccc32)c(-c2ccccc2)n1 | inactive: 0.21% |
| COc1ccc(CN(C)C(=O)c2ccc(Oc3ccccc3)cc2)cc1F | inactive: 13.2% |
| CN(C)S(=O)(=O)c1cccc(NC(=O)COC(=O)c2cc3ccccc3oc2=O)c1 | inactive: -27% |
| COc1cccc(-n2c(SCC(=O)N3c4ccccc4CC3C)nnc2-c2ccco2)c1 (stereo not drawn) | inactive: 4.96% |
| O=C(CCc1c[nH]c2ccccc12)NCCOc1ccccc1 | inactive: -0.599% |
| COc1ccccc1N1CCN(c2nccc(C)n2)CC1 | inactive: 36.2% |
| CC(C)c1ccc(CC(=O)N2CCC2(C)C(=O)NS(=O)(=O)c2ccc(F)cc2F)cc1 (stereo not drawn) | inactive: 13% |

| SMILES | growth rescue (activation) |
| --- | --- |
| CN(C)/C=C(/C(=O)c1ccc(Cl)cc1)n1cncn1 | inactive: -0.397% |
| CC(OC(=O)c1ccccc1Oc1ccccc1)C(=O)NC1CC1 (stereo not drawn) | inactive: 22.1% |
| Cc1cccc(NS(=O)(=O)c2c(C)noc2C)c1 | inactive: 12.8% |
| Cc1cc(C(=O)NCC(=O)OCC(=O)Nc2ccc(OC(F)F)cc2)ccc1[N+](=O)[O-] | inactive: 17.3% |
| CN1CCN(NC(=O)c2cc(-c3ccc(Cl)s3)nc3ccccc23)CC1 | inactive: -4.58% |
| CCOc1ccc2nc(SCC(=O)NCC3CCCO3)c(C#N)cc2c1 (stereo not drawn) | inactive: 7.49% |
| Cc1ccc(NC(=O)Cc2nnc(SCC(=O)Nc3ccc(N4CCOCC4)cc3)n2C)cc1 | inactive: -3.25% |
| COc1ccc(CCNC(=O)Cc2cc(OC)c(OC)cc2Br)cc1OC | inactive: -11.9% |
| O=C(Nc1ccc(S(=O)(=O)Nc2ncccn2)cc1)c1ccc(S(=O)(=O)N2CCCC2)cc1 | inactive: -9.83% |
| Cn1c(=O)c2c(nc(Sc3ncnn3CC(=O)NC(C)(C)C)n2C)n(C)c1=O | inactive: -3.54% |
| CC(Sc1nc2scc(-c3ccccc3)c2c(=O)[nH]1)C(=O)NC(N)=O (stereo not drawn) | inactive: -3.43% |
| O=C(CSc1nnc(-c2ccncc2)n1-c1ccccc1Cl)Nc1ccc(C(=O)O)cc1 | inactive: 2.85% |
| COc1ccc(Nc2ccc3c(c2)=NC2(CCCCC2)[N+]=3[O-])cc1 | inactive: 11.9% |
| CCCc1cc(=O)[nH]c(SCC(=O)N2CCN(c3ccccc3)CC2)n1 | inactive: 1.72% |
| O=C(Nc1ccccc1C(=O)Nc1ccccc1)c1ccco1 | inactive: 12.2% |
| CC(C)c1ccccc1NC(=O)Nc1nc(C(N)Cc2ccc(C(F)(F)F)cc2)cs1 (stereo not drawn) | inactive: 11.3% |
| CC1=NN(c2ccccc2)C(=O)/C1=C\C=C1/N(C)c2ccccc2C1(C)C | inactive: -2.73% |
| Nc1ncnc2nc(SCC(=O)Nc3ccccc3F)[nH]c12 | inactive: 17% |
| O=C(CNS(=O)(=O)c1ccc(Cl)cc1)OCC(=O)N1CCCc2ccccc21 | inactive: 15.5% |
| Cc1cc(Nc2ccccc2)n(CCOC(=O)COc2ccccc2)n1 | inactive: -12.1% |
| CCc1ccc(CN(C)C(=O)CCc2nnc(Cc3cccc(C)c3)o2)nc1 | inactive: 8.65% |
| O=C(N/N=C/c1ccccn1)NC12CC3CC(CC(C3)C1)C2 | inactive: 12.6% |
| CN(C)S(=O)(=O)c1cccc(NC(=O)CN2C(=O)C3C4C=CC(C4)C3C2=O)c1 (stereo not drawn) | inactive: 2.88% |

| SMILES | growth rescue (activation) |
| --- | --- |
| Fc1ccc(N2Cc3ccsc3C=N2)cc1 | inactive: 6.68% |
| CC12CCC(=O)N1C(C(=O)OCC(=O)Nc1cc(S(=O)(=O)N3CCCCC3)ccc1Cl)CS2 (stereo not drawn) | inactive: 25.6% |
| Cc1ccc2c(c1)sc1nc(=O)ccn12 | inactive: 4.79% |
| COc1ccc(S(=O)(=O)N2CCN(c3cnccn3)CC2)cc1 | inactive: 0.731% |
| CCNc1c(NS(=O)(=O)c2ccc(C3CCCCC3)cc2)c(=O)oc2ccccc12 | inactive: -16.6% |
| Cc1ccc(S(=O)(=O)Oc2cccc(/C=N/Nc3ccc(C(=O)O)cc3)c2)cc1 | inactive: 4.35% |
| COc1ccc(S(=O)(=O)N2CCCC2)cc1C(=O)N1CCCCC1 | inactive: -0.208% |
| CCC(=O)Nc1nc(-c2ccc3c(c2)CC(C)N3S(C)(=O)=O)cs1 (stereo not drawn) | inactive: 16.4% |
| CCc1ccccc1NC(=O)CSc1n[nH]c(-c2cccnc2)n1 | inactive: 11.6% |
| CCN(CC)CCN1C(=O)C(=O)/C(=C(/O)c2ccccc2)C1c1ccccc1F (stereo not drawn) | inactive: -1.63% |
| CC1(C)OC(=O)C(=NNc2ccccc2)C(=O)O1 | inactive: -23.2% |
| O=C(NC1CCCC1)c1cc(-c2ccc(Cl)cc2Cl)on1 | inactive: 20.7% |
| CC(OC(=O)CCCC(=O)Nc1ccc(F)cc1)C(=O)c1ccccc1 (stereo not drawn) | inactive: 2.46% |
| CC(C)CCNC(=O)c1cc2c(s1)-c1ccccc1S(=O)(=O)C2 | inactive: 5.64% |
| O=C1COc2ccc(C(=O)COC(=O)C3CC(O)CN3S(=O)(=O)c3ccc(Cl)cc3)cc2N1 (stereo not drawn) | inactive: 17.1% |
| Nc1c(Cl)ncnc1N1CCCC1 | inactive: 9.8% |
| CCn1c(SCC(=O)NC(C)C)nnc1-c1cccs1 | inactive: -2.04% |
| Cc1cc(C)nc(Nc2ccc(Br)cc2C(=O)O)n1 | inactive: -2.17% |
| Cc1cc(/C=C(\C#N)C(=O)NCc2ccccc2)cc(C)c1O | inactive: 4.18% |
| Cc1cccc(/C=N\Nc2nnc(-c3ccccc3)c(=O)[nH]2)c1 | inactive: 17.7% |
| O=C(NCc1ccncc1)c1ccc2nc(Cc3ccccc3F)oc2c1 | inactive: 4.52% |
| Cc1ccccc1N1CCN(Cc2nc(Cc3ccccc3F)no2)CC1 | inactive: 30.1% |
